Assay results from publication PMC10838290.
Results are given in words; binding and its absence hold for the method and conditions named. For some of these results: Binding seen in cells or lysates may run through a third protein. Some binding calls cover weakened binding; strength is not graded here.

Protein sequences, listed by entry. Tags and fused reporters are not part of them. Lines headed by an entry give the natural chain unless they say otherwise; changes in a name come on top.
UniProt Q15327: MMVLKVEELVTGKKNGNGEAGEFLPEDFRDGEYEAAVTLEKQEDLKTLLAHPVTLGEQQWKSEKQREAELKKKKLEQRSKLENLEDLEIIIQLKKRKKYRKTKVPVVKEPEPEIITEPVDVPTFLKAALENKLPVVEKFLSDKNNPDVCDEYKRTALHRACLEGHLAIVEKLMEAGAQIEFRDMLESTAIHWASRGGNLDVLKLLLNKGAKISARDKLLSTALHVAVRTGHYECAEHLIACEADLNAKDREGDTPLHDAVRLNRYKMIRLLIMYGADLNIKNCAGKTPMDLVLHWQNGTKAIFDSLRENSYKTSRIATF
UniProt P01100: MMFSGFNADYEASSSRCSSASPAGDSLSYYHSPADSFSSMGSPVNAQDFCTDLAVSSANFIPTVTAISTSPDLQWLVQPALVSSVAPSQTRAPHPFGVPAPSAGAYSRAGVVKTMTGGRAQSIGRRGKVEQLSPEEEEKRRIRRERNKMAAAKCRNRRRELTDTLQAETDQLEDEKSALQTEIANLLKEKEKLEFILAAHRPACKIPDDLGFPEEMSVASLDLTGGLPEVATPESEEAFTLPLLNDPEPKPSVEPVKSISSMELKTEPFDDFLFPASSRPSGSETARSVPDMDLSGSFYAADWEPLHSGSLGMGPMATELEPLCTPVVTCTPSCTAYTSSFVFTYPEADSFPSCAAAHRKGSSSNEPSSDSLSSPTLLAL
UniProt P05412: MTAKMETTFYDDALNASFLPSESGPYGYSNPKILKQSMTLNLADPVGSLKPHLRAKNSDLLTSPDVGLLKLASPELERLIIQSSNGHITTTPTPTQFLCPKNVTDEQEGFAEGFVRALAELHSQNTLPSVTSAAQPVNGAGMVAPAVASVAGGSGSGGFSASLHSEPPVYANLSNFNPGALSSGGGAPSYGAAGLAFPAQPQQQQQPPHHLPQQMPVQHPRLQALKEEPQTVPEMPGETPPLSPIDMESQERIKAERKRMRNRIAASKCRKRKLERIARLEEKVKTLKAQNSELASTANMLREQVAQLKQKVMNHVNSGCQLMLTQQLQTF

How the values were obtained:
[1] = molecular target: GST-tagged ANKRD1 recombinant protein (UniProt Q15327); assay: pull-down; GST-tagged ANKRD1 (100 ng) held on glutathione-conjugated beads, mixed with recombinant JUN or FOS proteins (100 ng each), alone or combined, with or without AP-1 DNA oligo or T-5224 (20 uM); 150 mM NaCl, 100 mM Tris pH 8, 0.5% NP40, 10% glycerol; overnight at 4 °C; western blot; both purified
[2] = molecular target: ANKRD1 fused with a V5-tag, expressed in HEK293 cells (human) (UniProt Q15327); assay: co-IP; V5-tag magnetic beads, 250 ug lysate of ANKRD1-overexpressing HEK293 cells digested with DNase I; 50 mM Tris-HCl pH 7.4, 150 mM NaCl, 1 mM EDTA, 1% NP-40, 1% Na-deoxycholate, 0.05% SDS; 4 °C, 12 hours; immunoblot for ANKRD1, JUN, FOSL2
[3] = molecular target: ANKRD1 fused with a V5-tag, expressed in human dermal fibroblasts (human) (UniProt Q15327); assay: proximity ligation; Duolink PLA on fixed, permeabilised cells with anti-ANKRD1, anti-JUN and anti-FOSL2 (FRA2) antibodies; HDFs infected with ANKRD1OE or CTRL vector, CAFs and matched HDFs, CAFs with shANKRD1 or ANKRD1-FANA ASO; puncta per cell
[4] = molecular target: ANKRD1, endogenous in cancer-associated fibroblasts (human (endogenous in CAFs)) (UniProt Q15327); assay: as above
[5] = molecular target: GST-tagged ANKRD1 recombinant protein (UniProt Q15327); assay: condition: only c-JUN heat denatured (20 min at 98 °C) before the binding assay; 100 ng; pull-down; as a1, but recombinant JUN heated for 20 min at 98 °C before mixing with GST-tagged ANKRD1; both purified

HIS-tagged FOS recombinant protein (full-length FOS) (from UniProt P01100 1-380)
binding [1]: binds weakly

HIS-tagged JUN (truncated form 1-241aa) (from UniProt P05412 1-241) (domain or fragment)
binding [1]: no binding (tested: 100 ng)

c-JUN, endogenous in HEK293 cells (from UniProt P05412 1-331)
binding [2]: binds

c-JUN, endogenous in human dermal fibroblasts and cancer-associated fibroblasts (from UniProt P05412 1-331)
binding [3]: binds
binding [4]: binds

full-length JUN recombinant protein (from UniProt P05412 1-331)
binding [5]: no binding
binding [1]: binds
